Measurements from the supplement of paper PMC3334620.
Over roughly 33,000 sequences, “E-score (-0.5 to 0.5)” has its median near -0.016; the highest 2% begin near 0.32. This is one part of the list.

What follows are sequences tested against T1, Stp1 (UniProt B3LFK1) (assay: PBM E-score (8-mer binding enrichment) (E-score (-0.5 to 0.5)); higher = stronger / more preferred TF binding; most listed sequences are background and not binding sites). Conditions: protein concentration: 200 nM; construct: GST-full length.
T1 sequence: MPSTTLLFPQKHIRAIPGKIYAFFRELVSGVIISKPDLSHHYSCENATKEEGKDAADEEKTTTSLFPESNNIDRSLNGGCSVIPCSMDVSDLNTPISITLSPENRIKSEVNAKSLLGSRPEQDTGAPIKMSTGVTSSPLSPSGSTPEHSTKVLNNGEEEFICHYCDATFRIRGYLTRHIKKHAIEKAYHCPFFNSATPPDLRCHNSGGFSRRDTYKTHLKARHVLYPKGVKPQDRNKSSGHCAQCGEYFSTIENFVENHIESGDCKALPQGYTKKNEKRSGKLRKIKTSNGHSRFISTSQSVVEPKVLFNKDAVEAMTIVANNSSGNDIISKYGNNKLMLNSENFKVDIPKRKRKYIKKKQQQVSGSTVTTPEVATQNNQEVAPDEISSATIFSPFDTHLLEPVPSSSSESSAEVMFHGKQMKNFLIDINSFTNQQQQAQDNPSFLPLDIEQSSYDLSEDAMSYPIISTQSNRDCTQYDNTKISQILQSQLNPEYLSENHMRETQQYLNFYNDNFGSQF
Procedure: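 Universal 'all 10-mer' protein binding microarrays (Agilent AMADID 015681) probed with GST-tagged S. cerevisiae TFs (full-length or DBD) made by in vitro transcription/translation (PURExpress), about 100-200 nM. Bound TF was detected with fluorescent anti-GST. Each ungapped 8-mer (which stands for itself and its reverse complement) is scored by the PBM enrichment score (E-score), a modified Wilcoxon-Mann-Whitney statistic from -0.5 to +0.5, computed with the Universal PBM Analysis Suite. Scale: above 0.35 generally sequence-specific binding.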

| Sequence | PBM E-score |
| --- | --- |
| CAAAGTCC | -0.0255 |
| TATGTGAA | -0.117 |
| GCCTAACC | -0.159 |
| AGATCAAG | 0.00406 |
| AAGGTTCG | -0.0246 |
| GTTGGCAA | 0.0689 |
| TAGAGTAA | 0.163 |
| TCCGTTAA | 0.154 |
| CTTATGTC | -0.0503 |
| CGGTTCCC | -0.147 |
| CTCCAGAC | -0.0753 |
| GGGACAAA | -0.155 |
| CAACCGCC | 0.0188 |
| TAGGTTAA | -0.0178 |
| CTATAGCC | -0.136 |
| CGGTGCAC | 0.0116 |
| ACTATTCA | 0.132 |
| ATCCGGTG | 0.0054 |
| CATGGCCC | -0.149 |
| CCGTATAC | 0.221 |
| CCGAGACA | -0.0488 |
| AAGCGCTT | 0.0783 |
| CTAATTAG | 0.0953 |
| GCACAAGC | 0.0702 |

| Sequence | PBM E-score |
| --- | --- |
| AGGGGCCC | -0.143 |
| CACGATCC | 0.00499 |
| AGAGCTAC | -0.11 |
| ATTCAGAA | 0.0953 |
| CGGCACTC | 0.365 |
| CCGAAGGA | -0.0869 |
| ATACACGG | 0.25 |
| AGCGGATG | -0.0707 |
| GACTTTCA | -0.217 |
| GACAACCC | -0.173 |
| AAATGATA | 0.146 |
| ATGTAAAT | 0.104 |
| CTGTCCGC | 0.0634 |
| TGATAGCA | 0.0459 |
| ACAACCGT | -0.0345 |
| GAGAGACC | -0.191 |
| TACATCTA | 0.0374 |
| ACGTCCGC | 0.134 |
| ACTCGAAA | -0.0173 |
| ATAAACTA | 0.202 |
| ACGAGTCG | 0.00615 |
| CGAAGGAG | -0.0226 |
| CGTAACAA | 0.18 |
| ACATGGCC | 0.147 |

| Sequence | PBM E-score |
| --- | --- |
| ACAACCTA | -0.164 |
| TTGACCAA | 0.06 |
| ACATAGCT | -0.212 |
| ATTCTGTC | -0.00835 |
| AATGTCAC | 0.136 |
| CGCTTTAA | 0.0115 |
| GTCTCTGA | 0.046 |
| ACCATTAG | -0.024 |
| GTAATACA | 0.04 |
| ATATTGAC | -0.165 |
| AAGCCCCT | -0.287 |
| TCACTTAA | -0.02 |
| GCTATTAA | 0.183 |
| GGAATACC | -0.213 |
| AGAAAACC | -0.0487 |
| CCCGGTCA | -0.287 |
| GCACATGA | -0.122 |
| GTTGTCAA | 0.09 |
| CTCTTTAC | 0.0569 |
| ACTTGACA | -0.0811 |
| CAAGCGGC | 0.466 |
| GACGCGGC | 0.466 |
| ACTACGGC | 0.359 |
| CGACGTTA | 0.118 |

| Sequence | PBM E-score |
| --- | --- |
| ACACAACA | 0.00352 |
| AATGTTTC | -0.0414 |
| AATGGATG | -0.09 |
| ACAGGTAA | -0.0174 |
| AATTTGGT | 0.0871 |
| ATGCTCCG | -0.0916 |
| ACCACCCA | -0.0526 |
| AGACTTAC | -0.25 |
| TCAAGGAA | 0.0129 |
| TCCCGAAA | -0.0842 |
| AATCGCCA | 0.213 |
| AGTGGTAT | -0.0308 |
| ACAAGTAT | -0.00903 |
| AAGAGTGC | -0.0482 |
| GTTCTGGA | -0.0238 |
| ACCTTTCG | -0.121 |
| ATTATTTG | 0.147 |
| CTCGTCCC | -0.0621 |
| CTCCAGCC | -0.0414 |
| ATCACCCG | -0.202 |
| CGATTGGC | 0.158 |
| CTTCCCAA | -0.112 |
